13 molecules from the supplement of paper PMC10037445 can be followed below.

Over roughly 2,900 compounds, “NF-kB SEAP reporter activity, fold change vs agonist alone” has its median near 0.99; the highest 2% begin near 2.6. The list shows a part of the results.

Assay [1] concerns RAW-Dual. Briefly: NF-kB SEAP reporter activity, fold change vs agonist alone; cytotoxicity flag (confluency mask): not cytotoxic; higher = enhanced NF-kB activity. The essentials:
(§1)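 RAW-Dual macrophages were seeded in DMEM at 50,000 cells/well in 384-well plates, given 50 nL of library stock by pin tool, and given a PRR agonist 1 h later. Plates were held at 37 °C, 5% CO2 for 20 hours, after which supernatant was read for IRF by QuantiLuc luminescence and for NF-κB by QuantiBlue absorbance at 620 nm. Reporter activity is expressed as fold change over wells that received agonist alone. A well was called cytotoxic when IncuCyte confluency fell below 70% of agonist controls in both mask sets.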

The test system of assay [2] is RAW-Dual. Briefly: NF-kB SEAP reporter activity, fold change vs agonist alone; higher = enhanced NF-kB activity. The note with it: library stock concentration (final ~1000-fold dilution): 10 mM, cytotoxicity flag (confluency mask): not cytotoxic. The essentials:
as §1

Setting [3] is: agonist: ODN 1826 (TLR9) 0.5 ug/mL.
Where [4] appears, read: agonist: Pam2CSK4 (TLR2/6) 0.1 ug/mL.
Where [5] appears, read: agonist: Pam3CSK4 (TLR2/1) 0.1 ug/mL.

As for `Cc1nc[nH]c1CN1CCc2c(c3ccccc3n2C)C1=O.Cl` (library stock concentration (final ~1000-fold dilution): 2 mM water), the “NF-kB SEAP reporter activity” value in the assay with RAW-Dual [1] (agonist: LPS (TLR4) 0.1 ug/mL) came to 1.14; in the assay on RAW-Dual [1] (setting [3]) it was 1.09; in the assay on RAW-Dual [1] (setting [4]), 1.15; with RAW-Dual [1] (setting [5]), 0.961.
As to `COc1c(O[C@@H]2O[C@H](CO)[C@@H](O)[C@H](O)[C@H]2O)cc2oc(-c3ccc(O)cc3)cc(=O)c2c1O` (library stock concentration (final ~1000-fold dilution): 10 mM), the “NF-kB SEAP reporter activity” value is 1.15 with RAW-Dual [1] (agonist: LPS (TLR4) 0.1 ug/mL), 1.21 in the assay with RAW-Dual [1] (setting [3]), 1.07 in the assay on RAW-Dual [1] (setting [4]) and 1.04 with RAW-Dual [1] (setting [5]).
Regarding `COc1c(O[C@@H]2O[C@H](CO)[C@@H](O)[C@H](O)[C@H]2O)cc2oc(-c3ccc(O)cc3)cc(=O)c2c1O`, the “NF-kB SEAP reporter activity” value amounted to 0.977 in the assay with RAW-Dual [2] (agonist: Imiquimod (TLR7) […]) and 1.04 in the assay on RAW-Dual [2] (agonist: MPLA (TLR4) […]).
For the molecule `Cl.Cn1cc(C(=O)C2CCc3nc[nH]c3C2)c2ccccc21` (stereo not given) (library stock concentration (final ~1000-fold dilution): 10 mM), the “NF-kB SEAP reporter activity” value in the assay with RAW-Dual [1] (agonist: LPS (TLR4) 0.1 ug/mL) is 1.01; in the assay with RAW-Dual [1] (setting [3]), 0.67; with RAW-Dual [1] (setting [4]) it was 0.928; with RAW-Dual [1] (setting [5]) it was 0.877.
Turning to `Cl.Cn1cc(C(=O)C2CCc3nc[nH]c3C2)c2ccccc21` (stereo not given), the “NF-kB SEAP reporter activity” value in the assay on RAW-Dual [2] (agonist: Imiquimod (TLR7) […]) was 0.775; in the assay with RAW-Dual [2] (agonist: MPLA (TLR4) […]), 0.816.
On to `CC(C)CC1NC(=O)C(C(C)C)NC(=O)C2CCCN2C(=O)C(CC(=O)O)NC(=O)C(Cc2c[nH]c3ccccc23)NC1=O` (stereo not given) (library stock concentration (final ~1000-fold dilution): 10 mM), for which the “NF-kB SEAP reporter activity” value in the assay with RAW-Dual [1] (agonist: LPS (TLR4) 0.1 ug/mL) was determined as 1.01; in the assay on RAW-Dual [1] (setting [3]) it was 0.96; in the assay on RAW-Dual [1] (setting [4]) it was 1.22; in the assay on RAW-Dual [1] (setting [5]), 1.05.
As to `CC(C)CC1NC(=O)C(C(C)C)NC(=O)C2CCCN2C(=O)C(CC(=O)O)NC(=O)C(Cc2c[nH]c3ccccc23)NC1=O` (stereo not given), the entries for the “NF-kB SEAP reporter activity” value in the assay with RAW-Dual [2] (agonist: Imiquimod (TLR7) […]) and in the assay on RAW-Dual [2] (agonist: MPLA (TLR4) […]) were 0.93 and 1.04, respectively.
For `CC[N+](C)(C)c1cccc(O)c1` (library stock concentration (final ~1000-fold dilution): 10 mM), the “NF-kB SEAP reporter activity” value came out at 1.54 with RAW-Dual [1] (agonist: LPS (TLR4) 0.1 ug/mL), 0.931 with RAW-Dual [1] (setting [3]), 0.952 with RAW-Dual [1] (setting [4]) and 1.08 in the assay with RAW-Dual [1] (setting [5]).
`CC[N+](C)(C)c1cccc(O)c1`: the “NF-kB SEAP reporter activity” value with RAW-Dual [2] (agonist: Imiquimod (TLR7) […]) was 0.898; in the assay on RAW-Dual [2] (agonist: MPLA (TLR4) […]), 1.01.
Turning to `CC1(C)CC[C@]2(C(=O)O)CC[C@]3(C)C(=CC[C@@H]4[C@@]5(C)C[C@@H](O)[C@H](O)C(C)(C)[C@@H]5CC[C@]43C)[C@@H]2C1` (library stock concentration (final ~1000-fold dilution): 10 mM), the “NF-kB SEAP reporter activity” value in the assay on RAW-Dual [1] (agonist: LPS (TLR4) 0.1 ug/mL) was 1.76; in the assay on RAW-Dual [1] (setting [3]) it was 1.09; in the assay with RAW-Dual [1] (setting [4]) it was 1.01; in the assay on RAW-Dual [1] (setting [5]), 1.18.
Regarding `CC1(C)CC[C@]2(C(=O)O)CC[C@]3(C)C(=CC[C@@H]4[C@@]5(C)C[C@@H](O)[C@H](O)C(C)(C)[C@@H]5CC[C@]43C)[C@@H]2C1`, the results for the “NF-kB SEAP reporter activity” value with RAW-Dual [2] (agonist: Imiquimod (TLR7) […]) and in the assay on RAW-Dual [2] (agonist: MPLA (TLR4) […]) were 1.2 and 1.44, respectively.
For the molecule `CCN(CCO)CCCOc1ccc2c(Nc3cc(CC(=O)Nc4cccc(F)c4)n[nH]3)ncnc2c1`, the “NF-kB SEAP reporter activity” value came out at 0.819 in the assay with RAW-Dual [2] (agonist: Imiquimod (TLR7) […]) and 0.925 with RAW-Dual [2] (agonist: MPLA (TLR4) […]).
Consider `CCN(CCO)CCCOc1ccc2c(Nc3cc(CC(=O)Nc4cccc(F)c4)n[nH]3)ncnc2c1` (library stock concentration (final ~1000-fold dilution): 10 mM), for which the “NF-kB SEAP reporter activity” value in the assay with RAW-Dual [1] (agonist: LPS (TLR4) 0.1 ug/mL) turned out to be 0.954; in the assay on RAW-Dual [1] (setting [3]), 0.917; with RAW-Dual [1] (setting [4]), 0.878; with RAW-Dual [1] (setting [5]) it was 0.853.
